The values that follow come from US20220002426A1 (BIOINVENT INTERNATIONAL, published 2022).

What is called EC50 is the concentration that produces a half-maximal response.

Test [1] addresses T1, recombinant human TNFR2-Fc protein (Sino Biological) (human, UniProt P20333 23-257, limits assumed).
T1 construct: bought; also called human TNFR2 protein; not shown: Fc part of the bought fusion protein; not described
T1 sequence (looked up): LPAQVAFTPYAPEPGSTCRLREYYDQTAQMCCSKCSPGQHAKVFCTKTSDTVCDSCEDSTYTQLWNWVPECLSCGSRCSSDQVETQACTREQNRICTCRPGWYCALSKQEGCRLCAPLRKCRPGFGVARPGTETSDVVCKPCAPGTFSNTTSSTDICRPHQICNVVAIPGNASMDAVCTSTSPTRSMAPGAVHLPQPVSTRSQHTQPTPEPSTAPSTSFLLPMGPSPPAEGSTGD
The test is described as follows: ELISA, coated TNFR2-Fc. As to the method: 96-well plates (Lumitrac 600 LIA plate, Greiner) were coated overnight at 4° C. with recombinant human or mouse TNFR2-Fc protein (Sino Biological) at 1 pmol/well. After washing, titrated doses of anti-TNFR2 mAbs from 20 μg/ml to 0.1 ng/ml (133 nM to 1 pM) were allowed to bind for 1 hour. Plates were then washed again, and bound antibodies were detected with an anti-human-F(ab)-HRP secondary antibody (Jackson ImmunoResearch) diluted in 50 ng/ml. Super Signal ELISA Pico (Thermo Scientific) was used as substrate and the plates were analyzed using Tecan Ultra Microplate reader.

For test [2], the target named is T2, wild type, full length human TNFR2 (on cells) (human, UniProt P20333 23-461).
T2 construct: whole, on cells; also called hTNFR2; TNFRII
T2 sequence (looked up): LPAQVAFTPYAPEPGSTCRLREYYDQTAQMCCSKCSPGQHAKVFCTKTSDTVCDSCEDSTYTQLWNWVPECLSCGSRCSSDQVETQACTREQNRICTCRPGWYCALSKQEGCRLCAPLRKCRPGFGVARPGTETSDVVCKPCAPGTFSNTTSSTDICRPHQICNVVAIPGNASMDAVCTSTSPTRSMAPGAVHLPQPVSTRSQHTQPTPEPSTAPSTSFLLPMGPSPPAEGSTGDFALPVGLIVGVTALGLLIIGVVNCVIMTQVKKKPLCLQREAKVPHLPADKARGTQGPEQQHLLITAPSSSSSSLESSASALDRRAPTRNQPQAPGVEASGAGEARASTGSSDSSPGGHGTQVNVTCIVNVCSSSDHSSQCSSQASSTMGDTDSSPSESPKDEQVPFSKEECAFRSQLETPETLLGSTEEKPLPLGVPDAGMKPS
The test can be described thus: FACS, activated CD4+ T cells. As to the method: The ability and affinity of TNFR2 n-CoDeR® antibodies to bind TNFR2 expressed on cells were obtained using in vitro activated CD4⁺ T cells. Human CD4⁺ T cells were stimulated with 50 ng/ml rhIL-2 (R&D systems) and Dynabeads® T-Activator CD3/CD28 for T-Cell Expansion and Activation (Gibco) 2-3 days at 37 degrees. […] Cells were then incubated with an APC conjugated a-human IgG secondary ab (Jackson) followed by analysis by flow cytometry (FACSVerse, BD).
For orientation: A flow cytometer gives signals particle by particle.

B1: 001-G05 (antibody, V domains shown)
VH: EVQLLESGGGLVQPGGSLRLSCAASGFTFSSYAMSWVRQAPGKGLEWVSVISGSGGSTYYAD[… about 20 residues …]MNSLRAEDTAVYYCTTDSGSGSYLWGQGTLVTVSS
VL: QSVLTQPPSASGTPGQRVTISCTGSSSNIGAGYDVHWYQQLPGTAPKLLIYSNNQRPSGVPDRFSGSKSGTSASLAISGLRSEDEADYYCAAWDDSLNGPVFGGGTKLTVLG
notes: IgG
B1: the EC50 was determined as 0.54 nM in test [1] and 0.66 nM in test [2].
